# Assay results from PubChem BioAssay AID686970 (National Center for Advancing Translational Sciences (NCATS), 2013).
# Screen size: about 360,000 compounds; about 6,000 (1.7%) were called active. Inconclusive means that the source gave no clear call. Such entries were picked first, then a sample of the others. The call rests on the fitted dose curve; in most records, active means well fitted cell-killing curve with a large enough effect; inconclusive means small, poorly fitted or top-dose-only effect, or effect the other way; inactive means flat fitted curve, though single readings scatter. No potency is given beside an inconclusive call; the fits are too rough.
# Test: qHTS for induction of synthetic lethality in tumor cells producing 2HG: qHTS for the HT-1080-NT fibrosarcoma cell line; further: nearly all actives have a fitted effect of over 55% in size
# Conditions: HT-1080-NT fibrosarcoma viability, CellTiter-Glo ATP luminescence, 48 h; activity, negative = less viability: at 46.1 µM (top of the series) unless noted
# Source text: Unbiased genomic sequencing for 22 glioma genomes found recurrent mutation of IDH1 on chromosome 2q33, a gene encoding the cytosolic isoform of IDH1 associated with the tricarboxylic acid cycle (TCA) that catalyzes the oxidative decarboxylation of isocitrate, yielding alpha-ketoglutarate and CO2 via NADP+ to NADPH conversion. Subsequent studies confirmed the recurrent IDH mutations in up to 70% of secondary gliomas and in 10% of AML cases. In addition, the somatic mutation of cancer-associated IDH1 is a point mutation resulting in various amino-acid substituents at Arginine132 (IDH1 R132), a key residue found in the enzyme's active site that when mutated, results in the loss-of-function in metabolizing isocitrate but confers a gain-of-function to produce the oncometabolite 2-hydroxyglutarate (2HG). This in effect defines IDH1 as an oncogene and provides an extraordinary opportunity to discover chemical probes against mutant IDH1 that may translate into much needed new therapies for glioma and AML patients.
# This assay aims to perform a synthetic lethal screen for chemical probes specific for 2HG-producing tumor cells using matched paired cell lines (1) HT-1080-NT fibrosarcoma cell line that overproduces 2HG and (2) HT-1080-IDH1KD cell line which has IDH1 expression knocked-down. Desirable compounds are toxic to the NT fibrosarcoma cells but not to the IDH1KD cell line. The data in this AID corresponds to the results of the qHTS against the HT-1080-NT fibrosarcoma cell line.
# [1] Dang L, Jin S, Su SM. IDH mutations in glioma and acute myeloid leukemia. Trends of Mol Med. 2010; 16(9): 387-97.
# [2] Dang L et al. Cancer-associated IDH1 mutations produce 2-hydroxyglutarate. Nature. 2010; 465(7300):966.
# NIH Molecular Libraries Probe Production Centers Network [MLPCN]
# NIH Chemical Genomics Center [NCGC]
# Assay Submitter (PI): Lenny Dang Ph.D., Agios Pharmaceuticals
# Suspensions of trypsinized HT-1080-NT cells were dispensed into white, tissue culture-treated, solid 1536-well plates at 5uL/well (750 cells/well final concentration) in RPMI medium supplemented with 5% FBS. Plates were incubated at 37 degrees C for 2 hours, after which 23 nL of compounds or DMSO were delivered to each well using a pin tool. Plates were then incubated at 37 degrees C for an additional 48 hours. CellTiter-Glo viability reagent (Promega) was dispensed into wells (2.5uL/well) and incubated at room temperature for 10 minutes. The plates were measured on a PerkinElmer ViewLux plate reader for luminescent signal (clear filter, 1 sec exp). DMSO-treated control wells and media-only (no cells) control wells were used to normalize %Activity of identified toxic compounds; DMSO-treated wells corresponded to 0%Activity (100% viability), while media-only controls were used to normalize 100%Activity (0% viability).
# Concentration-response curves were fitted to the signals arising from the resulting luminescence. The concentration-effect curves were then classified based on curve quality (r2), response magnitude and degree of measured activity, and compounds were subsequently categorized based on their curve class.
# Potency means the concentration at half of the fitted maximal effect; tags describe the fitted curve by direction and shape.
SMILES,Potency,"activity, negative = less viability"
CCOc1ccc(NC(=O)C(Cc2ccccc2)N2C(=O)c3cccc4cccc(c34)C2=O)cc1 (stereo not drawn),inactive,
Cc1ccsc1C1Nc2ccc3ncccc3c2C2=C1C(=O)CCC2 (stereo not drawn),"inconclusive [cytotoxic, single point]",
CCn1ncc(/C=N\NC(=O)c2csc3ccccc23)c1C,"inconclusive [cytotoxic, partial curve]",
CC(=O)OCC(OC(C)=O)C(OC(C)=O)C(OC(C)=O)C(=O)Nc1cccc(C)c1 (stereo not drawn),inactive,
C=C(C)C(=O)OCC(O)COc1ccc(C(C)(C)c2ccc(OCC(O)COC(=O)C(=C)C)cc2)cc1 (stereo not drawn),"inconclusive [cytotoxic, single point]",
CC(CC(=O)Nc1ncc([N+](=O)[O-])s1)c1ccccc1 (stereo not drawn),"inconclusive [cytotoxic, partial curve]",
O=C(CC12CC3CC(CC(C3)C1)C2)NC(=S)NCc1ccco1,"inconclusive [cytotoxic, single point]",
CCc1[nH]nc2c1C(c1ccncc1)C(C#N)=C(N)O2 (stereo not drawn),"inconclusive [cytotoxic, single point]",
CCc1ccccc1NNC(=O)c1snnc1C,active: 11.6 µM,
CC(C)(C)NC(=O)C[C@H]1C[C@H](C(=O)N2CCOCC2)[C@@]2(CCC3CCCC3)c3[nH]c4ccc(Cl)cc4c3CCN2C1=O,"inconclusive [cytotoxic, single point]",
COc1ccc(Cn2c(-c3ccc(Cl)cc3)c[n+]3ccccc23)cc1,"inconclusive [cytotoxic, partial curve]",
COc1ccc(-c2nc(-c3ccc4c(c3)OCO4)[nH]c2-c2ccc(OC)cc2)cc1,active: 18.4 µM,
COc1ccccc1C1CCN(Cc2ccc3ccccc3c2)CC1,"inconclusive [cytotoxic, partial curve]",
COc1cccc(N=Cc2c(O)c3ccccc3oc2=O)c1,"inconclusive [cytotoxic, partial curve]",
O=C(c1cc(-c2ccc(Br)cc2)nc2ccccc12)N1CCN(c2ccccc2O)CC1,"inconclusive [cytotoxic, partial curve]",
O=C(Nc1nc2ccc(S(=O)(=O)N3CCCC3)cc2s1)C1CCCCC1,active: 20.6 µM,
COC(=O)c1ccc(C(C(=O)NCc2ccccc2)N(Cc2ccco2)C(=O)c2cnccn2)cc1 (stereo not drawn),inactive,
COc1ccc(OC)c(-c2csc(NC(=O)Cc3ccccc3)n2)c1,"inconclusive [cytotoxic, single point]",
Cc1cc(Cl)ccc1NNC(=O)CCc1ccccc1,"inconclusive [cytotoxic, full curve, poor fit]",
CC(C)CC(N)c1csc(Nc2ccc(C(F)(F)F)cn2)n1 (stereo not drawn),active: 18.4 µM,
COc1cccc(/C=C2/SC(=S)N(CCCC(=O)Nc3ccc(O)cc3)C2=O)c1,"inconclusive [cytotoxic, single point]",
O=C(CSc1c2c(nc3cc(Cl)ccc13)CCCC2)NCCCN1CCOCC1,"inconclusive [cytotoxic, partial curve]",
COCCNC(=O)C1(C)CCCN(Cc2cn(C)c3ccccc23)C1 (stereo not drawn),inactive,

SMILES,Potency,"activity, negative = less viability"
COc1ccc(/C=C/C(O)=C2/C(=O)N(C)C3(C)CC2c2ccccc2O3)cc1 (stereo not drawn),"inconclusive [cytotoxic, single point]",
COc1ccc(CCNC(=O)c2cc(C3CC3)on2)cc1OC,inactive,
CN(C)c1ccc(-c2ccnc3c2CC(C)(C(=O)NCc2ccccc2)O3)cc1 (stereo not drawn),"inconclusive [cytotoxic, single point]",
Cc1ccc(S(=O)(=O)Nc2cc(C)c(O)c(Sc3n[nH]c(C)n3)c2)cc1,"inconclusive [cytotoxic, single point]",
Cc1cccc(CN2CCc3c(OCC(=O)N4CCCc5ccccc54)cccc3C2=O)c1,"inconclusive [cytotoxic, single point]",
O=C(Cn1cnc2c(nnn2Cc2ccc(F)cc2)c1=O)NCc1ccc(F)cc1,"inconclusive [cytotoxic, partial curve]",
CCc1nnc2n1N=C(c1ccc(OC)cc1)CS2,"inconclusive [cytotoxic, single point]",
COc1cc(OC)c(NC2=CC(=O)C(=O)c3ccccc32)cc1Cl,active: 20.6 µM,
Cc1ccc2nc(-c3cccc(Br)c3)c(Cc3ccccc3)n2c1,"inconclusive [cytotoxic, single point]",
CC1(C)C2CC[C@]3(C)C(CC=C4[C@@H]5C[C@@](C)(CO)[C@@H](O)C[C@]5(C(=O)O)CC[C@]43C)[C@@]2(C)CC[C@@H]1O (stereo partly drawn),inactive,
O=C(O)c1ccc(N/N=C/c2ccc(-c3cc(Cl)ccc3Cl)o2)cc1,"inconclusive [cytotoxic, single point]",
COc1ccc(Br)cc1Cn1nnc(C(=O)Nc2ccc3c(c2)OCCO3)c1N,"inconclusive [cytotoxic, single point]",
Cc1cccc(C)c1Nc1c(-c2ccsc2)nc2ncccn12,inactive,
Cc1cc(C)cc(NC2=NC3(CCCCC3)N=C(N)N2)c1,"inconclusive [cytotoxic, single point]",
COc1ccccc1C(=O)NCC(=O)N/N=C/c1cc(Br)ccc1OC(=O)/C=C\c1ccco1,"inconclusive [cytotoxic, partial curve]",
COc1cccc(CN(C)CC(=O)Nc2ccccc2C(C)C)c1,inactive,
COc1cc(-c2noc(C)c2/C=C/c2ccc(C(=O)O)cc2)cc(OC)c1OC,"inconclusive [cytotoxic, single point]",
C=CCN(c1ccccc1OC)S(=O)(=O)c1cccc(C(=O)OCC(=O)N2CC(C)OC(C)C2)c1 (stereo not drawn),inactive,
Cc1cccc(C(=O)NC(=S)NNC(=O)c2ccc(Cl)cc2)c1,"inconclusive [cytotoxic, full curve, poor fit]",
c1ccc(Nc2nc(N3CCCCC3)nc(N3CCNCC3)n2)cc1,"inconclusive [cytotoxic, single point]",
OC(c1ccc(Cl)c(F)c1)c1ncc(-c2ccccc2Cl)[nH]1 (stereo not drawn),"inconclusive [cytotoxic, single point]",
CCCS(=O)(=O)NC(=O)C1(C)CCN(C(=O)c2ccc(F)c(Cl)c2)C1 (stereo not drawn),"inconclusive [rising, partial curve, poor fit]",
Cc1cccc(Nc2nc(N)nc(CN3CCN(C)CC3)n2)c1,inactive,

SMILES,Potency,"activity, negative = less viability"
COc1ccc(CN(C)Cc2cc(=O)oc3cc(C)c(C(C)C)cc23)cc1OC,"inconclusive [cytotoxic, single point]",
COC(=O)[C@]12CCCCC=C1N(CCC1=CCCCC1)C(=O)[C@H](CC(=O)NCc1cccs1)C2,"inconclusive [cytotoxic, single point]",
O=C(Nc1cccc(C(F)(F)F)c1)NC1CCCCC1,"inconclusive [cytotoxic, single point]",
COc1ccc(CN(C)C(=O)/C=C/c2ccc(S(=O)(=O)N3CCOCC3)cc2)cc1F,inactive,
O=C(O)CCCN1C(=O)/C(=C/c2ccncc2)SC1=S,"inconclusive [cytotoxic, partial curve]",
COc1ccc(NC(=O)C2CCN(S(=O)(=O)c3ccc(N4CCCC4=O)cc3)CC2)c(OC)c1,inactive,
Cn1nc(-c2ccccc2)c(CSc2cccc(Cl)c2)c1Cl,"inconclusive [cytotoxic, single point]",
S=C(NCc1ccccc1)NNc1ccccc1,"inconclusive [cytotoxic, full curve, poor fit]",
O=C(O)CCCc1ccccc1,,inconclusive: 22.1%
Cn1c(SCCOc2ccccc2Cl)nnc1-c1ccncc1,"inconclusive [cytotoxic, partial curve]",
Clc1cccc(-c2cc3nc4c(c(NCc5ccco5)n3n2)CCCC4)c1,"inconclusive [cytotoxic, single point]",
Cc1oc2c(c1C(=O)c1ccc(Cl)cc1)C(=O)C(=O)c1ccccc1-2,inactive,
CCOc1cc(C)c(S(=O)(=O)NCCCn2ccnc2)cc1C,inactive,
CCc1ccc(OCC(=O)NNC(=S)NC(=O)C2CC2)c(Br)c1,"inconclusive [cytotoxic, single point]",
CC1CCc2sc(C(=O)N/N=C/c3ccc(O)cc3)cc2C1 (stereo not drawn),"inconclusive [cytotoxic, single point]",
Cc1ccc(Sc2c(C=O)c3ccccc3n2C)cc1,"inconclusive [cytotoxic, single point]",
Cc1ccc(C)c(-n2sc3ccc(F)cc3c2=O)c1,active: 20.6 µM,
N=c1n(Cc2ccccc2)c2ccccc2n1CC(O)c1ccccc1 (stereo not drawn),"inconclusive [cytotoxic, partial curve]",
COc1cc(Nc2nc(-c3ccccc3)c3cc(C)ccc3n2)cc(OC)c1OC,"inconclusive [cytotoxic, single point]",
Cc1noc(C)c1COc1ccc(C(=O)NNC(=O)c2ccccc2F)cc1,"inconclusive [cytotoxic, full curve]",
CCN1c2ccccc2NC2N=C(OC)C(c3ccccc3)C21 (stereo not drawn),active: 11.2 µM,
CC1(C)O[C@@H]2C[C@H]3[C@@H]4CCC5=CC(=O)C=C[C@]5(C)[C@@]4(F)[C@@H](O)C[C@]3(C)[C@]2(C(=O)CO)O1,"inconclusive [rising, full curve]",
